# Reference: PubChem BioAssay AID463173 (ICCB-Longwood Screening Facility, Harvard Medical School, 2010)
# In all, about 52,000 compounds went through this assay and about 4,300 (8.3%) were called active. Cut-off read from the data, not from the text of the source: active = survival mostly below about 52% (no sharp cut-off); inactive = mostly above about 56%. The list shows a part of the results.
# System: DeltatarO mutant
# Test: S. aureus survival, RN4220 and DeltatarO strains – OD600, teichoic acid synthesis inhibitors, primary screen (AID 463173)
# Settings: S. aureus RN4220 wild type/DeltatarO growth, OD600, 18 h, stronger effect = lower value, screened at 18.75 µg/mL (by protocol)
row,SMILES,survival
1,O=C(O)c1cccn2c(=O)c3ccccc3nc12,inactive: 93%
2,CCOC(=O)c1ccc(NC(=O)CN2c3ccccc3S(=O)(=O)c3ccccc32)cc1,inactive: 117%
3,CCOC(=O)c1cc(-c2ccccc2)n(CCC(=O)NC2CCCCC2)c1C,inactive: 74%
4,Cc1ccc2nc(CSc3nnc(NC(=O)c4cccc(Br)c4)s3)cc(=O)n2c1,inactive: 72%
5,CCc1oc(C(=O)O)cc1CN,inactive: 97%
6,C/C(N)=C\C(=O)Nc1ccccc1,inactive: 83%
7,COc1cccc(CNC(=O)CCCN2C(=O)CCn3nc(-c4cccn4C)cc32)c1,inactive: 94%
8,Cc1nnc(N(C)C(=O)c2ccc3c(c2)OCO3)s1,inactive: 80%
9,CCOC(=O)c1cccc(NC(=O)Cn2c(=O)nc(-c3ccccc3F)c3cc(Cl)ccc32)c1,inactive: 76%
10,CCn1c(=O)c2cc(C(=O)N(CC(C)C)CC(C)C)sc2c2ccccc21,active: -4%
11,CCOc1ccc(CCNC(=O)c2csc3c2CCCCC3)cc1,inactive: 73%
12,CCCn1c(=N)c(C(=O)NC2CCCC2)cc2c(=O)n3cccc(C)c3nc21,inactive: 60%
13,COc1ccc(/C=C(/C#N)c2nc(-c3ccc(-c4ccccc4)cc3)cs2)cc1OC,inactive: 101%
14,COc1ccc(-c2c(C)nn3c(N4CCN(c5ccccc5)CC4)cc(C)nc23)cc1OC,inactive: 64%
15,COc1ccc(NC(=O)CC2C(=O)N(c3ccc(F)cc3)C(=O)N2Cc2ccc3c(c2)OCO3)cc1 (stereo unspecified),inactive: 101%
16,CCCCOc1ccc(CNC(=O)c2cc3n(n2)CCCN(Cc2ccc(C)cc2)C3=O)cc1,inactive: 75%
17,COc1ccc(OCCn2c(C)nc3cc(C)c(C)cc32)cc1,inactive: 57%
18,CCCCSCCCNC(=O)c1cn(CC)c2ccc(S(=O)(=O)N3CCCCCC3)cc2c1=O,inactive: 61%
19,CCc1cccc(C)c1NC(=O)c1cc(S(=O)(=O)N2CCOCC2)cn1C,inactive: 68%
20,CCOC(=O)c1ccccc1NC(=O)n1ncc2cc(Cl)ccc21,inactive: 85%
21,Cc1noc(C)c1S(=O)(=O)Nc1ccc(C(=O)Nc2ccc(Br)cc2)cc1,active: 36%
22,COc1cc(NC(=O)CCn2cnc3ccccc3c2=O)cc(OC)c1,inactive: 122%
23,CNC(=O)CSc1nnc(NC(=O)Nc2ccccc2)s1,inactive: 94%
24,Cc1ccc2oc3c(c(=O)c2c1)C(c1ccc(OCC(N)=O)cc1)N(Cc1ccc2c(c1)OCO2)C3=O (stereo unspecified),inactive: 93%
25,O=C(CSc1nnc(-c2ccc(Br)cc2)n1-c1ccccc1)c1ccccc1,inactive: 69%
26,CCOc1ccc(-c2cc(C(=O)N3CCN(c4cccc(C(F)(F)F)c4)CC3)c3ccccc3n2)cc1,inactive: 102%
